Experimental data reported in the supplement of paper PMC10126150.
Sequences with one replicate were seen in a single cluster, so their values are uncertain.

Test system: ATP
Assay: switch fluorescence ratio, 500 uM ATP over buffer (Cy3 cluster intensity, sum of 5 cycles each) (fold (ratio)); higher = stronger signal-on switching upon ATP binding; sequences stand for … in TCGTCGGCAGCGTCAGATGTGTATAAGAGACAGTTTTTTTTTTTTTTTTTTTTTTTTT…TC
Conditions: aptamer strand: ATP DNA aptamer (quencher-CACCTGGGGGAGTATTGCGGAGGAAGG + anchor), 100 nM annealed; ATP concentration: 500 uM; one replicate
Procedure, shortened: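 Values give the fluorescence ratio for each switch-domain sequence, averaged from per-cluster ratios of summed target-cycle to summed buffer-cycle Cy3 intensity. The Cy3-labelled switching-strand clusters sat on a modified Illumina MiSeq flow-cell, were annealed to 100 nM quencher-labelled ATP aptamer, and were imaged in selection buffer, then after 15 min with 500 uM ATP at 22 °C. Five cycles ran with NaOH stripping and re-annealing between them, and clusters outside 100-1000 RFU were excluded.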
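Also: ATP exposure 15 min at 22 °C before imaging.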

Sequence	switch fluorescence ratio
GTTTTTTATG	1.02
TCCTACTGAT	1.05
AAATTTCAAG	0.977
ATACACCTTG	0.997
CTAACTTGGG	0.993
TTCCAAGGCC	0.96
ATTACGTAGT	1
AAGGGAAAA	1.05
AGTTTATTCA	0.938
ACTAGTGGCA	1.02
TGAGGCAGTA	1.12
CTAGTTACGA	1.02
TTTCGACCGT	1.01
ACCACTGGTC	1.13
TATCGACTTT	0.98
TTTACGCCGA	0.965
AAGGAACATG	0.995
AACAATCCTT	1.02
TCGTGTATGG	0.967
TTACCGCCAG	1.08
GCGAGGTGAG	0.992
CGGACGGGGC	1.34

Sequence	switch fluorescence ratio
TATCTCACAC	1.04
ATGAGTGGCG	0.988
CAGCGAAGG	0.969
GGAGGCTTGC	0.999
CAGTCTAAAA	1.02
GGGGCAGCGC	0.991
AGCCGGTTAC	1.2
CATTCTACT	1.03
ACCAAACGAT	1.21
GTTATCATAT	1.01
GGAGAAGCAG	1
TAACACTACG	1.46
TGACGCTGTC	1.37
TTTTGATAAA	0.971
AAGTGTCCGC	1.03
AGTTTTAAAT	0.997
AGTAGTTGTA	1
AAATAGTTTT	0.971
GGCTCCTTAT	1.04
ATACGTAAG	1.12
ACAAGGTGT	1.28
CCTTTGTAGT	1.13

Sequence	switch fluorescence ratio
GCGTTCTGTT	0.992
ACCGGTCTCT	1.02
TGTACAAAGG	1.01
TGTAGTATAA	0.993
ACGTGCAGCT	0.992
ACGTGATGTG	1
TCCTCTGACA	3.21
TAGTTCGCA	1.08
ATTCTCGAGA	1.02
CCTACGGCAT	2.71
ATCCGAATAG	3.86
TCGTGTAACC	1.02
CCCGTAGGGG	0.957
TACATGGGGG	1.03
TATGTGAGAA	1
ACCTTAATG	1.02
GCGATAACGC	0.993
CGCTGAGTTC	1.06
AAAATTTGAA	1.03
TTCCTTGTCA	1.01
CCATATGTA	0.999
ATCCGTTGGG	0.999

Sequence	switch fluorescence ratio
AGATCAATAT	0.967
TTGAAGTCCC	1.02
AATCTTGTCG	0.918
ATGTAGGTG	1.09
CGGTGGCCCC	0.962
GGGTCGTGGA	1
GGTGGTCTAC	1.02
CGCAGACACC	1.66
CGAAATGATA	1.02
AATGAATAAG	1.01
GAATAGGGGT	1
TCCTCATGGG	1.04
CACGAGGGCG	0.979
GTAGCGTTGG	1.05
TACGCGTACG	1.07
GTGAGGAGTG	1.01
GGTGAAGCGC	0.992
GGTGCGAGGG	1.11
AGGAGTTCAG	1.01
